The subject of test [1] is RAW-Dual. As to the kind of experiment: IRF Lucia reporter activity, fold change vs agonist alone; higher = enhanced IRF activity. The following applies: agonist: MPLA (TLR4) […]. The method in brief:
(§1)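 Reporter activity is given as fold change relative to agonist-alone wells. To measure it, 50 nL of library stock was pin-tooled onto RAW-Dual macrophages (50,000 cells/well, DMEM, 384-well plates), a PRR agonist followed 1 h later, and cells stayed at 37 °C, 5% CO2. Twenty hours on, supernatant was assayed for IRF (QuantiLuc luminescence) and NF-κB (QuantiBlue, 620 nm absorbance), and wells under 70% of agonist-control IncuCyte confluency in both mask sets were marked cytotoxic.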

In test [2] the test system is RAW-Dual. As to the kind of experiment: IRF Lucia reporter activity, fold change vs agonist alone; cytotoxicity flag (confluency mask): not cytotoxic; higher = enhanced IRF activity. Put shortly:
as §1

The test system of test [3] is RAW-Dual. As to the kind of experiment: IRF Lucia reporter activity, fold change vs agonist alone; cytotoxicity flag (confluency mask): cytotoxic (confluency <70% of control); higher = enhanced IRF activity. The method in brief: as §1
Where [4] appears, read: library stock concentration (final ~1000-fold dilution): 10 mM, cytotoxicity flag (confluency mask): not cytotoxic.
Setting [5] is: agonist: 3'3'-cGAMP (STING) 10 ug/mL.

SMILES strings stand for the structures. Where “and” joins values, the source holds several entries; their conditions need not be identical. Identical values can stand only once. ± gives the standard deviation of the averaged measurements. Whole data set: some 2,900 compounds, median “IRF Lucia reporter activity, fold change vs agonist alone” near 0.9, cut for the highest 2% near 2.8. Some of the results follow.

For `CCCC1CC(C(=O)NC(C(C)Cl)C2OC(SC)C(O)C(O)C2O)N(C)C1.Cl.O` (stereo not given), the “IRF Lucia reporter activity” value with RAW-Dual [1] (setting [4]) came to 1.05.

`CN1CCN(c2ccc(Nc3ncc4cc(C#N)c(=O)n(C5CCCC5)c4n3)cc2)CC1` (library stock concentration (final ~1000-fold dilution): 10 mM): the “IRF Lucia reporter activity” value in the test on RAW-Dual [2] (setting [5]) amounted to 0.0348; in the test on RAW-Dual [2] (agonist: LPS (TLR4) 0.1 ug/mL), 0.0421.

On to `O=c1cc(-c2ccccc2)oc2cc(O)c(O)c(O)c12`, for which the “IRF Lucia reporter activity” value with RAW-Dual [1] (setting [4]) is 0.932.

Take `O=c1cc(-c2ccccc2)oc2cc(O)c(O)c(O)c12` (library stock concentration (final ~1000-fold dilution): 10 mM): the figures for the “IRF Lucia reporter activity” value with RAW-Dual [2] (setting [5]) and in the test with RAW-Dual [2] (agonist: LPS (TLR4) 0.1 ug/mL) were 0.842 and 0.954, respectively.

`CCN(CC)C(=O)C(c1ccccc1)N1CCN(c2ccc(NC(=O)c3ccccc3-c3cccnc3)cc2F)CC1` (stereo not given): the “IRF Lucia reporter activity” value in the test with RAW-Dual [1] (setting [4]) is 1.17.

Take `CCN(CC)C(=O)C(c1ccccc1)N1CCN(c2ccc(NC(=O)c3ccccc3-c3cccnc3)cc2F)CC1` (stereo not given) (library stock concentration (final ~1000-fold dilution): 10 mM): the results for the “IRF Lucia reporter activity” value in the test with RAW-Dual [2] (setting [5]) and in the test on RAW-Dual [2] (agonist: LPS (TLR4) 0.1 ug/mL) were 1.05 and 1.02, respectively.

With `COc1ccc(C2OCC3C(c4ccc(OC)c(OC)c4)OCC23)cc1OC` (stereo not given) (library stock concentration (final ~1000-fold dilution): 10 mM), the “IRF Lucia reporter activity” value with RAW-Dual [2] (setting [5]) was found to be 1.35; with RAW-Dual [2] (agonist: LPS (TLR4) 0.1 ug/mL), 0.899.

With `Cc1c(C)c2c(c(C)c1O)CCC(C)(C(=O)O)O2` (stereo not given), the “IRF Lucia reporter activity” value in the test on RAW-Dual [1] (setting [4]) came out at 1.06.

In the case of `Cc1c(C)c2c(c(C)c1O)CCC(C)(C(=O)O)O2` (stereo not given) (library stock concentration (final ~1000-fold dilution): 10 mM), the “IRF Lucia reporter activity” value with RAW-Dual [2] (setting [5]) is 1.07 and 1.1; with RAW-Dual [2] (agonist: LPS (TLR4) 0.1 ug/mL), 0.982 and 0.759.

Turning to `CC(=O)OCC(=O)NCCCOc1cccc(CN2CCCCC2)c1.Cl`, in the test on RAW-Dual [1] (setting [4]), the “IRF Lucia reporter activity” value was determined as 0.94.

Consider `CC(=O)OCC(=O)NCCCOc1cccc(CN2CCCCC2)c1.Cl` (library stock concentration (final ~1000-fold dilution): 10 mM), for which the “IRF Lucia reporter activity” value worked out at 1.06 in the test with RAW-Dual [2] (setting [5]) and 0.974 in the test with RAW-Dual [2] (agonist: LPS (TLR4) 0.1 ug/mL).

Turning to `N.S=C(S)N1CCCC1` (library stock concentration (final ~1000-fold dilution): 10 mM), the “IRF Lucia reporter activity” value came out at 0.705 ± 0.088 in the test on RAW-Dual [2] (setting [5]) and 1.261 ± 0.01 in the test on RAW-Dual [2] (agonist: LPS (TLR4) 0.1 ug/mL).

`N.S=C(S)N1CCCC1`: the “IRF Lucia reporter activity” value in the test with RAW-Dual [1] (setting [4]) came to 1.34 ± 0.037.

For `CCOC1OC(=O)CC1NC(=O)C1CCCN1C(=O)C(NC(=O)c1ccc(N)c(Cl)c1)C(C)(C)C` (stereo not given), the “IRF Lucia reporter activity” value in the test with RAW-Dual [1] (setting [4]) is 1.37.

For `CCOC1OC(=O)CC1NC(=O)C1CCCN1C(=O)C(NC(=O)c1ccc(N)c(Cl)c1)C(C)(C)C` (stereo not given) (library stock concentration (final ~1000-fold dilution): 10 mM), the “IRF Lucia reporter activity” value in the test on RAW-Dual [2] (setting [5]) turned out to be 0.945; in the test on RAW-Dual [2] (agonist: LPS (TLR4) 0.1 ug/mL), 1.51.

Take `CN(C)C(CCOc1cccc2ccccc12)c1ccccc1.Cl` (stereo not given) (library stock concentration (final ~1000-fold dilution): 10 mM): the results for the “IRF Lucia reporter activity” value with RAW-Dual [3] (setting [5]) and in the test on RAW-Dual [3] (agonist: LPS (TLR4) 0.1 ug/mL) were 0.796 and 0.92, respectively.

As for `CN(C)C(CCOc1cccc2ccccc12)c1ccccc1.Cl` (stereo not given), in the test on RAW-Dual [1] (library stock concentration (final ~1000-fold dilution): 10 mM, cytotoxicity flag (confluency mask): cytotoxic (confluency <70% of control)), the “IRF Lucia reporter activity” value stood at 1.02.

For `CS(=O)(=O)c1ccc(-c2cnc(NCc3ccco3)n3cnnc23)cc1` (library stock concentration (final ~1000-fold dilution): 10 mM), the “IRF Lucia reporter activity” value was determined as 0.73 in the test with RAW-Dual [2] (setting [5]) and 1.06 in the test on RAW-Dual [2] (agonist: LPS (TLR4) 0.1 ug/mL).

For the compound `CCn1nc(C2CCN(C(=O)CCO)CC2)nc1-c1cnc(N)c(-c2nnc(C(C)(C)C)o2)n1` (library stock concentration (final ~1000-fold dilution): 10 mM), the “IRF Lucia reporter activity” value with RAW-Dual [2] (setting [5]) amounted to 0.419; in the test on RAW-Dual [2] (agonist: LPS (TLR4) 0.1 ug/mL), 1.09.

Consider `Cc1nc2cc(F)c(F)cc2n1-c1cncc(Nc2ccc(C(F)(F)F)cc2)n1` (library stock concentration (final ~1000-fold dilution): 10 mM), for which the “IRF Lucia reporter activity” value worked out at 0.237 in the test with RAW-Dual [2] (setting [5]) and 1.88 with RAW-Dual [2] (agonist: LPS (TLR4) 0.1 ug/mL).

With `COc1cc2ncnc(Nc3ccc(F)c(Cl)c3)c2cc1OCCCN1CCOCC1.Cl` (library stock concentration (final ~1000-fold dilution): 10 mM), the “IRF Lucia reporter activity” value was found to be 0.73 in the test with RAW-Dual [2] (setting [5]) and 1.26 in the test on RAW-Dual [2] (agonist: LPS (TLR4) 0.1 ug/mL).

For the compound `COc1cc2ncnc(Nc3ccc(F)c(Cl)c3)c2cc1OCCCN1CCOCC1.Cl`, the “IRF Lucia reporter activity” value with RAW-Dual [1] (setting [4]) turned out to be 0.952.

In the case of `O=c1cc(-c2ccc(O)c(O)c2O)oc2ccccc12` (library stock concentration (final ~1000-fold dilution): 10 mM), the “IRF Lucia reporter activity” value in the test with RAW-Dual [2] (setting [5]) was determined as 0.749; in the test with RAW-Dual [2] (agonist: LPS (TLR4) 0.1 ug/mL), 0.923.

On to `Cl.NC12CC3CC(CC(C3)C1)C2`, for which the “IRF Lucia reporter activity” value with RAW-Dual [1] (setting [4]) stood at 1.07.

For the compound `Cl.NC12CC3CC(CC(C3)C1)C2` (library stock concentration (final ~1000-fold dilution): 10 mM), the “IRF Lucia reporter activity” value in the test on RAW-Dual [2] (setting [5]) stood at 1.06; in the test on RAW-Dual [2] (agonist: LPS (TLR4) 0.1 ug/mL), 1.14.

`Cc1cnc(Nc2ccc(F)cc2Cl)nc1-c1c[nH]c(C(=O)NC(CO)c2cccc(Cl)c2)c1` (stereo not given) (library stock concentration (final ~1000-fold dilution): 10 mM): the “IRF Lucia reporter activity” value was 0.474 in the test on RAW-Dual [2] (setting [5]) and 1.16 with RAW-Dual [2] (agonist: LPS (TLR4) 0.1 ug/mL).

On to `CCOC(=O)C1=CC2(CC)CCCN3CCc4c(n1c1ccccc41)C32` (stereo not given) (library stock concentration (final ~1000-fold dilution): 2 mM), for which the “IRF Lucia reporter activity” value in the test with RAW-Dual [2] (setting [5]) was found to be 0.863; in the test with RAW-Dual [2] (agonist: LPS (TLR4) 0.1 ug/mL), 0.956.

For `CCOC(=O)C1=CC2(CC)CCCN3CCc4c(n1c1ccccc41)C32` (stereo not given), in the test on RAW-Dual [1] (library stock concentration (final ~1000-fold dilution): 2 mM, cytotoxicity flag (confluency mask): not cytotoxic), the “IRF Lucia reporter activity” value worked out at 1.3.

For the origin of these results see the supplement of paper PMC10037445.
